According to the BET-seq Pho4 binding data (Le et al. 2018):
The other results are listed elsewhere or left out. These are noisy estimates, calculated here from bound and input reads.

Molecular target: T1, Pho4 (S. cerevisiae) (UniProt P07270)
T1 sequence: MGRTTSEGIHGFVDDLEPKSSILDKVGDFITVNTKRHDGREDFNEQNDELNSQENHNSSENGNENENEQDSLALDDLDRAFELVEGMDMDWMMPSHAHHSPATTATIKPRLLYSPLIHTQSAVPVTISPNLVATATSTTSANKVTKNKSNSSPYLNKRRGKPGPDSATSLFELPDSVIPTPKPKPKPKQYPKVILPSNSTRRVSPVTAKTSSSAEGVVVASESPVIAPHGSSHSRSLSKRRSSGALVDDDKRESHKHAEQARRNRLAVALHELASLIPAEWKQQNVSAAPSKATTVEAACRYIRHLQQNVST
Assay: relative binding free energy (BET-seq); higher = weaker binding
Conditions: reference: library average

| Sequence | relative binding free energy |
| --- | --- |
| TTTGGCACGTGTATTA | 0.03 kcal/mol |
| AAGTCCACGTGTGTAG | 0.16 kcal/mol |
| ACGGGCACGTGTTTAT | -0.02 kcal/mol |
| TATTGCACGTGAGGAA | 0 kcal/mol |
| GGAGGCACGTGGTTGT | -0.03 kcal/mol |
| TTCAGCACGTGGAAGG | 0.04 kcal/mol |
| GCGTGCACGTGCAGGG | -0.08 kcal/mol |
| GGTTTCACGTGTAAGT | 0.37 kcal/mol |
| TGTTACACGTGAATTT | 0.33 kcal/mol |
| GGCGTCACGTGGAGAG | 0.15 kcal/mol |
| GGGGGCACGTGACGTC | 0.07 kcal/mol |
| TATATCACGTGAGCTT | 0.2 kcal/mol |
| TTAAACACGTGATGTA | 0.08 kcal/mol |
| TACGGCACGTGTTAGG | 0.12 kcal/mol |
| AGTGACACGTGTGGTA | -0.02 kcal/mol |
| TTAGACACGTGAGTGG | 0.28 kcal/mol |
| ATGGGCACGTGATGCA | -0.23 kcal/mol |
| AGTGTCACGTGGACGT | -0.09 kcal/mol |
| TAGTGCACGTGAGCTT | 0.14 kcal/mol |
| CTTGTCACGTGATTTA | 0.28 kcal/mol |
| ATGTTCACGTGATAGG | 0.32 kcal/mol |
| AGATACACGTGGAAGG | 0.14 kcal/mol |
| TAAAGCACGTGGGAGT | -0.11 kcal/mol |

| Sequence | relative binding free energy |
| --- | --- |
| AAGTGCACGTGATCGG | -0.08 kcal/mol |
| TGGGACACGTGACGGG | 0.11 kcal/mol |
| TTGCTCACGTGTACGT | 0.38 kcal/mol |
| GTGTACACGTGCCGGG | -0.09 kcal/mol |
| TTGTTCACGTGGCAAA | 0.26 kcal/mol |
| CGTGGCACGTGTTCTG | -0.1 kcal/mol |
| TCGAGCACGTGGTTTA | -0.04 kcal/mol |
| CGCAGCACGTGTGGTT | -0.04 kcal/mol |
| CTAAGCACGTGGCGTG | -0.16 kcal/mol |
| GTTGGCACGTGGGGTT | -0.13 kcal/mol |
| GGGTACACGTGCGTTG | -0.04 kcal/mol |
| AAGGGCACGTGGGAAT | 0.02 kcal/mol |
| CGGGTCACGTGCTCGG | 0.02 kcal/mol |
| GGCTTCACGTGGTTGG | 0.35 kcal/mol |
| GGTTTCACGTGAGGCC | 0.5 kcal/mol |
| GTTTACACGTGTTATG | 0.14 kcal/mol |
| TCGGTCACGTGAGTGT | 0.29 kcal/mol |
| GAAATCACGTGGAGTT | 0.35 kcal/mol |
| TGTGTCACGTGCTACG | 0.04 kcal/mol |
| TGGCGCACGTGTGCTT | -0.07 kcal/mol |
| TCGCGCACGTGAGGGT | -0.04 kcal/mol |
| AGTGACACGTGGTGGG | -0.01 kcal/mol |
| GGCATCACGTGATGGA | 0.36 kcal/mol |

| Sequence | relative binding free energy |
| --- | --- |
| TGAGGCACGTGTATAA | -0.08 kcal/mol |
| CTTAACACGTGTTGGT | -0.09 kcal/mol |
| GGGAGCACGTGCTGTT | -0.16 kcal/mol |
| GTAGGCACGTGATGGG | 0.01 kcal/mol |
| TATAGCACGTGATTAG | 0 kcal/mol |
| CAGTTCACGTGGGCTT | 0.18 kcal/mol |
| ATGTGCACGTGTGACT | 0.01 kcal/mol |
| TTGTTCACGTGGATGT | 0.23 kcal/mol |
| TTTTTCACGTGGCCTT | 0.21 kcal/mol |
| GGTTTCACGTGCTTAG | 0.25 kcal/mol |
| GGGTTCACGTGCTGTT | 0.15 kcal/mol |
| CTGTTCACGTGTGGAG | 0.18 kcal/mol |
| AGGTGCACGTGGAGTT | -0.07 kcal/mol |
| AGGGCCACGTGTGTTT | -0.05 kcal/mol |
| TGGCACACGTGGGTTG | -0.04 kcal/mol |
| ATCGTCACGTGGTTAG | 0.09 kcal/mol |
| TGAGACACGTGTGTAT | 0.11 kcal/mol |
| GGTGGCACGTGGCAAT | 0.1 kcal/mol |
| TTTTACACGTGAATGC | 0.39 kcal/mol |
| TGTCTCACGTGGGCGT | 0.12 kcal/mol |
| TTATCCACGTGTGTGT | -0.01 kcal/mol |
| TGTCGCACGTGGGTTG | -0.18 kcal/mol |
| CAGGTCACGTGGTGGA | -0.17 kcal/mol |

| Sequence | relative binding free energy |
| --- | --- |
| TGAAACACGTGAAGGG | 0.19 kcal/mol |
| TTAGTCACGTGGCTGA | 0.09 kcal/mol |
| TGGGCCACGTGCGGAT | -0.19 kcal/mol |
| TATGGCACGTGGTGAG | -0.08 kcal/mol |
| ATTGGCACGTGTATTA | -0.04 kcal/mol |
| GAGATCACGTGTGTGC | 0.13 kcal/mol |
| TGTAACACGTGGAAGG | 0.06 kcal/mol |
| GTACTCACGTGCGGTT | 0.13 kcal/mol |
| AGGGGCACGTGTAAAT | -0.01 kcal/mol |
| GAGAGCACGTGGGGTG | -0.17 kcal/mol |
| TGTTCCACGTGTTGAA | 0.18 kcal/mol |
| TTAGTCACGTGTGGTT | 0.22 kcal/mol |
| CGTGTCACGTGTGGTT | 0.03 kcal/mol |
| TTGGTCACGTGTTTGG | 0.23 kcal/mol |
| TGTCTCACGTGGTATA | 0.25 kcal/mol |
| GTGTTCACGTGCCTTT | 0.28 kcal/mol |
| TTCAGCACGTGTTAAT | 0.01 kcal/mol |
| AGGGCCACGTGTGGTT | -0.01 kcal/mol |
| GGATTCACGTGGAGGG | 0.25 kcal/mol |
| CTATTCACGTGGGCGT | 0.04 kcal/mol |
| TTTATCACGTGATACT | 0.06 kcal/mol |
| AGTGTCACGTGGTAAT | -0.03 kcal/mol |
| GTGAACACGTGCTTGT | -0.03 kcal/mol |

| Sequence | relative binding free energy |
| --- | --- |
| CGGGTCACGTGAAGGA | 0.18 kcal/mol |
| TATCGCACGTGAGTTA | 0.1 kcal/mol |
| AAGTGCACGTGTGTGG | -0.03 kcal/mol |
| GCGCGCACGTGTGAGT | 0.11 kcal/mol |
| CGGAACACGTGGGATT | -0.02 kcal/mol |
| GATAGCACGTGTTGAG | -0.08 kcal/mol |
| TGTGCCACGTGCTGGG | -0.15 kcal/mol |
| GGTAGCACGTGCGATT | -0.02 kcal/mol |
| TTCATCACGTGTGAGT | 0.18 kcal/mol |
| CGTTTCACGTGTCGGT | 0.33 kcal/mol |
| GTGCTCACGTGGATGT | 0.33 kcal/mol |
| TTGAGCACGTGGATGG | -0.17 kcal/mol |
| ATGTGCACGTGCTATG | -0.09 kcal/mol |
| TTTCGCACGTGAGTTA | 0.21 kcal/mol |
| GCGTACACGTGCGGGT | 0.09 kcal/mol |
| GGTTTCACGTGGTGTT | 0.3 kcal/mol |
| CGTGACACGTGGTGGT | -0.06 kcal/mol |
| TCACGCACGTGTGGAG | 0.11 kcal/mol |
| CGGGGCACGTGGTGGT | -0.15 kcal/mol |
| GGGTCCACGTGTGGCG | 0.06 kcal/mol |
| ATCGTCACGTGTGTAG | 0.09 kcal/mol |
| GTATTCACGTGCGTGT | 0.13 kcal/mol |
| TATGACACGTGTTTGT | 0.01 kcal/mol |
